We go through 14 molecules from publication PMC12136788.

This is one part of the list.

To fix the notation:
B1: chr6:18258251:18258252:-_ENSG00000124795_ENST00000397239|hu_mus|motif|central (ssRNA)
RNA: GGGAGUUCUACAGUCCGACGAUCCUUCUUCAACGAGGACACUGUGCCCGGCCUGUUGUAAAGCAGUUUGUGUAGAUUUCGGAGUUCAUCUGGUUUUUUCUUACUCAGAAAGAAAUGUAUCCUUUCAAUUUCACAAAGUUUCUGCAACAGAGGAUUGAGCAUCA
B2: chr14:62205016:62205017:+_ENSG00000100644_ENST00000337138|hu_hu|FALSE|FALSE (ssRNA)
RNA: GGGAGUUCUACAGUCCGACGAUCCUGAUCCUGAAUCUGGGGCAUGGUAAAAGAAAGUUCCAGUGACUCUGGAUUUGGUUCUAAUUUUAAUGCAACUUCUUGAUUGAGUGCAGGGUCAGCACUACUUCGAAGUGGCUUUGGCGUCAACAGAGGAUUGAGCAUCA
B3: chr19:36966019:36966020:+_ENSMUSG00000024811_ENSMUST00000025729|mus_hu|motif|central (ssRNA)
RNA: GGGAGUUCUACAGUCCGACGAUCCAUGAAAGCUAGAAAUUGAGGCCAGUAAAGAAGCUUCUUUAGUAAUCAGGACCGGUCAUAGUUAGAGCUCUUUGGAAUGUGUCUCAUACAUACAAAGGUAUCACAAAUUAAAUCUUCAGCCAACAGAGGAUUGAGCAUCA
B4: chr4:17488853:17488854:-_ENSG00000151552_ENST00000428702|hu_mus|FALSE|FALSE (ssRNA)
RNA: GGGAGUUCUACAGUCCGACGAUCUAGGCUUCCUGAGUUUGGCCGUUUGUUCCCAGUGAUCCAGUCAUGGAAGGUUUCCACCAGGAACUCUAAGGGUGUCCAGGAGCUGAAGUCUGCCUCAGGCAUUGAUUUCCUGUUCAUCGGCAACAGAGGAUUGAGCAUCA
B5: chr5:143539998:143539999:-_ENSG00000145817_ENST00000274496|hu_mus|FALSE|FALSE (ssRNA)
RNA: GGGAGUUCUACAGUCCGACGAUCAGUUCAGAAGACAGAAAUCAGGGCAAAGACUCCAUACAACAAAGCACAGGGAUAUGCCACUAAAAGUUGUUGUCCAUCCAUAGCUAAUGCAGAAAUAAAAAUUUUGGAAGCAGAAAAACUCAACAGAGGAUUGAGCAUCA
B6: chr10:90581586:90581587:-_ENSMUSG00000061904_ENSMUST00000076694|mus_mus|FALSE|FALSE (ssRNA)
RNA: GGGAGUUCUACAGUCCGACGAUCAGCUUCCAUAGGAGCCAGGGCAAUGUCAGCGAAGAAUUCAGCACUGGCAGAAGAAGCUAAAUACAGUGAUGUGCGCCACAGGUAGGUGUUUUCCUCACCAAGUAUGUUGCUAUAUAAGGCCAACAGAGGAUUGAGCAUCA
B7: chr2:179515052:179515053:+_ENSMUSG00000000305_ENSMUST00000000314|mus_hu|mus_mus_mus_hu_False|98_108 (ssRNA)
RNA: GGGAGUUCUACAGUCCGACGAUCGCUUUCCCGCGCAGUGACGGUAAACGCCACCUGCUCGGAGGGGACCUGCAGCUCCCGGGUGGCGAAGACUGUCCCAUCUGCCCCAACUUUGAAGUCCAUGCUGUUGGUCUCAUAUUGUGUCAACAGAGGAUUGAGCAUCA
B8: chr4:106585523:106585524:+_ENSMUSG00000061887_ENSMUST00000030367|mus_mus|motif|central (ssRNA)
RNA: GGGAGUUCUACAGUCCGACGAUCAGGUCUGUGCAGAUUUCUGUGCUCCUACGUGCAGUAAAUAUUCGUAGACGUAUAAAGCGGACUUUUCCCGAGCCUGCCCGUCCGAGGGCACCGCCGAGCCUUUGCCUUUGGCAAACAUGGCAACAGAGGAUUGAGCAUCA
B9: chr2:128036804:128036805:-_ENSG00000163161_ENST00000285398|hu_hu|motif|central (ssRNA)
RNA: GGGAGUUCUACAGUCCGACGAUCGACAAUAAUCUUGUCAUUCCUCCUUUCAUGAAACUUGAUCAGAAACUGGCAAGCUCGGAAUUUGUUGGGGUUCAUGGUGUACAGCAAGAUUCGUUUCUUGGUUUUGAUUGCCACAUAUUCCAACAGAGGAUUGAGCAUCA
B10: chr6:13622506:13622507:-_ENSG00000010017_ENST00000011619|hu_mus|motif|central (ssRNA)
RNA: GGGAGUUCUACAGUCCGACGAUCAGGAAGCAAUGUAAAGCGACAAAAACCUGUCCCCAGUACAUAAUUAAAAAAAAAUCGGAAUUUCAAAUCAGCAGAGCCGGUCUACUUCCAUGUUGACUGUUUGCCACAAUGUGAGUGUGACAACAGAGGAUUGAGCAUCA
B11: chr17:6074196:6074197:-_ENSMUSG00000015659_ENSMUST00000097432|mus_mus|FALSE|FALSE (ssRNA)
RNA: GGGAGUUCUACAGUCCGACGAUCAUCUUAUUAUAUUUCGGAUAUUUCUCCAGGGCGUGCGACUUUUUGAUCGGGGAGCAAAGGAUCCUAUCCUCCUGCAACAGAUGACACAGUAGGCAGCCAGGGACAUCCUGCCGGCGCAAUCAACAGAGGAUUGAGCAUCA
B12: 54841758_54841878_4210_3pUTR_ENSMUSG00000058446_ENSMUST00000079869|mouse|control|control (ssRNA)
RNA: GGGAGUUCUACAGUCCGACGAUCAGUUUUAAGAGUUUCAUACUUCGCUCAUCUUUAGCUUCCUACUGGGGAACUCCCCUUAUUUCCCUUAAGUCAAUACAGAAAAAGCAGGUACUAUUUACAUCGAAUCCACAAUCCUUCUUACAACAGAGGAUUGAGCAUCA
B13: chr18:33956166:33956167:-_ENSMUSG00000024376_ENSMUST00000025234|mus_mus|FALSE|FALSE (ssRNA)
RNA: GGGAGUUCUACAGUCCGACGAUCCUUGGAUUUGGUUUUAGUUUGGGGUGAGGGAGAUUGUGGGAAAGGCCACAGUUCAACCUAAGGAGUUAAGGGUAGAGCUUGGCAAGCACUAUCACUGAGCAGUCUACCCCCCAACUGAACCAACAGAGGAUUGAGCAUCA
B14: 27673724_27673844_8167_CDS_ENSMUSG00000022263_ENSMUST00000090247|mouse|control|control (ssRNA)
RNA: GGGAGUUCUACAGUCCGACGAUCGUUCUCCAUGAUAACUGCACUCGUAUGGCCCAAGACGAAGCCCGGAAUCCAGCCCUCGGCUGCGGGGCACUGGUCAGUGGCGGCUCGGAACACCAGAAACAUGUUCUGCUGGUUGCUGGCCAACAGAGGAUUGAGCAUCA

The assay deals with T1, UNK ZnF1-3 (human, UniProt Q9C0B0 31-174).
T1 sequence: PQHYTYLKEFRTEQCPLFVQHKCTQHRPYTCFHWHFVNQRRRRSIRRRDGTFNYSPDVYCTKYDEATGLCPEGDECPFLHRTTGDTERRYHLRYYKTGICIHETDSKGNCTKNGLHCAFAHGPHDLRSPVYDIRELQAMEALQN
In words: nsRBNS (natural sequence RNA bind-n-seq); RBNS binding buffer (assumed for nsRBNS): 25 mM Tris pH 7.5, 150 mM KCl, 3 mM MgCl2, 0.01% Triton X-100, 500 ug/ml BSA, 20 U/ml SUPERase-In, 4 C; UNK is unkempt and MSI1 is Musashi-1; names of the RNAs are library labels; protein concentration not given here; high values mean tight binding.
Consider B1, for which the binding signal worked out at 0.594 enrichment R.
The molecule B2 showed a binding signal of 0.851 enrichment R.
As for B3, the binding signal worked out at 1.44 enrichment R.
The molecule B4 returned a binding signal of 0.59 enrichment R.
Molecule B5 had a binding signal of 1.56 enrichment R.
With B6, the binding signal came to 1.8 enrichment R.
On to B7, for which the binding signal is 0.728 enrichment R.
With B8, the binding signal amounted to 0.877 enrichment R.
As to B9, the binding signal amounted to 0.621 enrichment R.
Regarding B10, the binding signal was 2.35 enrichment R.
For the molecule B11, the binding signal came out at 1.61 enrichment R.
The same measure for B12: 0.769 enrichment R.
B13 returned a binding signal of 1.04 enrichment R.
The molecule B14 had a binding signal of 1.35 enrichment R.
